# Experimental data from the supplement of paper PMC8728848.
# This is one part of the list.
# B1: CFEM-SCL (Saccharomyces cerevisiae), O13547 (protein)
# chain: MRATTLLSSVVSLALLSKEVLATPPACLLACVAQVGKSSSTCDSLNQVTCYCEHENSAVKKCLDSICPNNDADAAYSAFKSSCSEQNASLGD
# What was measured:
# Experiment in all cases: glycan array binding signal (z-score within array); higher = stronger binding
# Conditions in all cases: glycan notation: IUPAC condensed, linker removed
# [1] = target: Fuc(a1-2)Gal(b1-4)GlcNAc(b1-3)Gal(b1-4)GlcNAc(b1-2)Man(a1-3)[Fuc(a1-2)Gal(b1-4)GlcNAc(b1-3)Gal(b1-4)GlcNAc(b1-2)Man(a1-6)]Man(b1-4)GlcNAc(b1-4)GlcNAc
# Procedure, shortened: (§1)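 From the Consortium for Functional Glycomics database, 3228 arrays were curated, keeping only those whose protein sequence was available. Binding is given as a within-array Z-score averaged across arrays sharing a protein sequence and across linkers. Negative Z-scores can be read as non-binding.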
# [2] = target: Fuc(a1-2)Gal(b1-4)GlcNAc(b1-3)Gal(b1-4)GlcNAc(b1-3)Gal(b1-4)GlcNAc
# Procedure, shortened: as §1
# [3] = target: Fuc(a1-2)Gal(b1-4)GlcNAc(b1-3)GalNAc
# Procedure, shortened: as §1
# [4] = target: Fuc(a1-2)Gal(b1-4)GlcNAc(b1-3)[Fuc(a1-2)Gal(b1-4)GlcNAc(b1-6)]GalNAc
# Procedure, shortened: as §1
# [5] = target: Fuc(a1-2)Gal(b1-4)GlcNAc(b1-3)[Fuc(a1-3)[Gal(b1-4)]GlcNAc(b1-6)]Gal(b1-4)Glc
# Procedure, shortened: as §1
# [6] = target: Fuc(a1-2)Gal(b1-4)GlcNAc(b1-6)GalNAc
# Procedure, shortened: as §1
# [7] = target: Fuc(a1-2)Gal(b1-4)GlcNAc6S
# Procedure, shortened: as §1
# [8] = target: Fuc(a1-2)Gal(b1-4)[Fuc(a1-3)]GlcNAc
# Procedure, shortened: as §1
# [9] = target: Fuc(a1-2)Gal(b1-4)[Fuc(a1-3)]GlcNAc(b1-2)Man(a1-3)[Fuc(a1-2)Gal(b1-4)[Fuc(a1-3)]GlcNAc(b1-2)Man(a1-6)]Man(b1-4)GlcNAc(b1-4)[Fuc(a1-6)]GlcNAc
# Procedure, shortened: as §1
# [10] = target: Fuc(a1-2)Gal(b1-4)[Fuc(a1-3)]GlcNAc(b1-2)[Fuc(a1-2)Gal(b1-4)[Fuc(a1-3)]GlcNAc(b1-4)]Man(a1-3)[Fuc(a1-2)Gal(b1-4)[Fuc(a1-3)]GlcNAc(b1-2)Man(a1-6)]Man(b1-4)GlcNAc(b1-4)GlcNAc
# Procedure, shortened: as §1
# [11] = target: Fuc(a1-2)Gal(b1-4)[Fuc(a1-3)]GlcNAc(b1-3)Gal(b1-4)[Fuc(a1-3)]GlcNAc
# Procedure, shortened: as §1
# [12] = target: Fuc(a1-2)Gal(b1-4)[Fuc(a1-3)]GlcNAc(b1-3)Gal(b1-4)[Fuc(a1-3)]GlcNAc(b1-3)Gal(b1-4)[Fuc(a1-3)]GlcNAc
# Procedure, shortened: as §1
# [13] = target: Fuc(a1-2)Gal(b1-4)[Fuc(a1-3)]GlcNAc(b1-3)GalNAc
# Procedure, shortened: as §1
# [14] = target: Fuc(a1-2)Gal(b1-4)[Fuc(a1-3)]GlcNAc(b1-3)[Neu5Ac(a2-6)Gal(b1-4)GlcNAc(b1-6)]Gal(b1-4)Glc
# Procedure, shortened: as §1
# [15] = target: Fuc(a1-2)Gal3S(b1-4)GlcNAc
# Procedure, shortened: as §1
# [16] = target: Fuc(a1-2)Gal6S(b1-3)GlcNAc
# Procedure, shortened: as §1
# [17] = target: Fuc(a1-2)Gal6S(b1-3)GlcNAc6S
# Procedure, shortened: as §1
# Fuc(a1-2)Gal6S(b1-4)Glc = target: Fuc(a1-2)Gal6S(b1-4)Glc
# Procedure, shortened: as §1
# [18] = target: Fuc(a1-2)Gal6S(b1-4)Glc6S
# Procedure, shortened: as §1
# Fuc(a1-2)[Gal(a1-3)]Gal = target: Fuc(a1-2)[Gal(a1-3)]Gal
# Procedure, shortened: as §1
# [19] = target: Fuc(a1-2)[Gal(a1-3)]Gal(b1-3)GalNAc
# Procedure, shortened: as §1
# [20] = target: Fuc(a1-2)[Gal(a1-3)]Gal(b1-3)GalNAc(b1-3)Gal(a1-4)Gal(b1-4)Glc
# Procedure, shortened: as §1
# [21] = target: Fuc(a1-2)[Gal(a1-3)]Gal(b1-3)GlcNAc
# Procedure, shortened: as §1
# [22] = target: Fuc(a1-2)[Gal(a1-3)]Gal(b1-3)GlcNAc(b1-2)Man(a1-3)[Fuc(a1-2)[Gal(a1-3)]Gal(b1-3)GlcNAc(b1-2)Man(a1-6)]Man(b1-4)GlcNAc(b1-4)GlcNAc
# Procedure, shortened: as §1
# [23] = target: Fuc(a1-2)[Gal(a1-3)]Gal(b1-3)GlcNAc(b1-2)Man(a1-3)[Fuc(a1-2)[Gal(a1-3)]Gal(b1-3)GlcNAc(b1-2)Man(a1-6)]Man(b1-4)GlcNAc(b1-4)[Fuc(a1-6)]GlcNAc
# Procedure, shortened: as §1
# [24] = target: Fuc(a1-2)[Gal(a1-3)]Gal(b1-3)GlcNAc(b1-3)GalNAc
# Procedure, shortened: as §1
# [25] = target: Fuc(a1-2)[Gal(a1-3)]Gal(b1-3)GlcNAc(b1-6)GalNAc
# Procedure, shortened: as §1
# [26] = target: Fuc(a1-2)[Gal(a1-3)]Gal(b1-4)Glc
# Procedure, shortened: as §1
# [27] = target: Fuc(a1-2)[Gal(a1-3)]Gal(b1-4)GlcNAc
# Procedure, shortened: as §1
# [28] = target: Fuc(a1-2)[Gal(a1-3)]Gal(b1-4)GlcNAc(b1-2)Man
# Procedure, shortened: as §1
# [29] = target: Fuc(a1-2)[Gal(a1-3)]Gal(b1-4)GlcNAc(b1-2)Man(a1-3)[Fuc(a1-2)[Gal(a1-3)]Gal(b1-4)GlcNAc(b1-2)Man(a1-6)]Man(b1-4)GlcNAc(b1-4)GlcNAc
# Procedure, shortened: as §1
# [30] = target: Fuc(a1-2)[Gal(a1-3)]Gal(b1-4)GlcNAc(b1-2)Man(a1-3)[Fuc(a1-2)[Gal(a1-3)]Gal(b1-4)GlcNAc(b1-2)Man(a1-6)]Man(b1-4)GlcNAc(b1-4)[Fuc(a1-6)]GlcNAc
# Procedure, shortened: as §1
# [31] = target: Fuc(a1-2)[Gal(a1-3)]Gal(b1-4)GlcNAc(b1-3)GalNAc
# Procedure, shortened: as §1
# [32] = target: Fuc(a1-2)[Gal(a1-3)]Gal(b1-4)GlcNAc(b1-3)[Fuc(a1-2)[Gal(a1-3)]Gal(b1-4)GlcNAc(b1-6)]GalNAc
# Procedure, shortened: as §1
# [33] = target: Fuc(a1-2)[Gal(a1-3)]Gal(b1-4)GlcNAc(b1-6)GalNAc
# Procedure, shortened: as §1
# [34] = target: Fuc(a1-2)[Gal(a1-3)]Gal(b1-4)[Fuc(a1-3)]Glc
# Procedure, shortened: as §1
# [35] = target: Fuc(a1-2)[Gal(a1-3)]Gal(b1-4)[Fuc(a1-3)]GlcNAc
# Procedure, shortened: as §1
# [36] = target: Fuc(a1-2)[Gal(a1-3)]Gal(b1-4)[Fuc(a1-3)]GlcNAc(b1-3)GalNAc
# Procedure, shortened: as §1
# [37] = target: Fuc(a1-2)[Gal(a1-4)]Gal(b1-4)GlcNAc
# Procedure, shortened: as §1
# [38] = target: Fuc(a1-2)[GalNAc(a1-3)]Gal
# Procedure, shortened: as §1
# [39] = target: Fuc(a1-2)[GalNAc(a1-3)]Gal(b1-3)GalNAc(a1-3)[Fuc(a1-2)]Gal(b1-4)GlcNAc
# Procedure, shortened: as §1
# [40] = target: Fuc(a1-2)[GalNAc(a1-3)]Gal(b1-3)GalNAc(b1-3)Gal(a1-4)Gal(b1-4)Glc
# Procedure, shortened: as §1
# [41] = target: Fuc(a1-2)[GalNAc(a1-3)]Gal(b1-3)GlcNAc
# Procedure, shortened: as §1
# [42] = target: Fuc(a1-2)[GalNAc(a1-3)]Gal(b1-3)GlcNAc(b1-2)Man(a1-3)[Fuc(a1-2)[GalNAc(a1-3)]Gal(b1-3)GlcNAc(b1-2)Man(a1-6)]Man(b1-4)GlcNAc(b1-4)GlcNAc
# Procedure, shortened: as §1
# [43] = target: Fuc(a1-2)[GalNAc(a1-3)]Gal(b1-3)GlcNAc(b1-2)Man(a1-3)[Fuc(a1-2)[GalNAc(a1-3)]Gal(b1-3)GlcNAc(b1-2)Man(a1-6)]Man(b1-4)GlcNAc(b1-4)[Fuc(a1-6)]GlcNAc
# Procedure, shortened: as §1
binder,measurement,setting,value
B1,glycan array binding signal (z-score),[1],-0.182
same,glycan array binding signal (z-score),[2],-0.22
same,glycan array binding signal (z-score),[3],3.91
same,glycan array binding signal (z-score),[4],-0.222
same,glycan array binding signal (z-score),[5],-0.304
same,glycan array binding signal (z-score),[6],-0.172
same,glycan array binding signal (z-score),[7],-0.218
same,glycan array binding signal (z-score),[8],-0.31
same,glycan array binding signal (z-score),[9],0.17
same,glycan array binding signal (z-score),[10],1.02
same,glycan array binding signal (z-score),[11],-0.273
same,glycan array binding signal (z-score),[12],-0.296
same,glycan array binding signal (z-score),[13],3.09
same,glycan array binding signal (z-score),[14],-0.311
same,glycan array binding signal (z-score),[15],-0.227
same,glycan array binding signal (z-score),[16],-0.235
same,glycan array binding signal (z-score),[17],0.256
same,glycan array binding signal (z-score),Fuc(a1-2)Gal6S(b1-4)Glc,-0.174
same,glycan array binding signal (z-score),[18],-0.172
same,glycan array binding signal (z-score),Fuc(a1-2)[Gal(a1-3)]Gal,-0.069
same,glycan array binding signal (z-score),[19],-0.182
same,glycan array binding signal (z-score),[20],-0.278
same,glycan array binding signal (z-score),[21],-0.107
same,glycan array binding signal (z-score),[22],-0.318
same,glycan array binding signal (z-score),[23],-0.236
same,glycan array binding signal (z-score),[24],0.2
same,glycan array binding signal (z-score),[25],-0.325
same,glycan array binding signal (z-score),[26],-0.165
same,glycan array binding signal (z-score),[27],-0.122
same,glycan array binding signal (z-score),[28],-0.307
same,glycan array binding signal (z-score),[29],-0.342
same,glycan array binding signal (z-score),[30],-0.34
same,glycan array binding signal (z-score),[31],-0.207
same,glycan array binding signal (z-score),[32],-0.104
same,glycan array binding signal (z-score),[33],-0.291
same,glycan array binding signal (z-score),[34],-0.287
same,glycan array binding signal (z-score),[35],0.815
same,glycan array binding signal (z-score),[36],0.411
same,glycan array binding signal (z-score),[37],-0.053
same,glycan array binding signal (z-score),[38],-0.208
same,glycan array binding signal (z-score),[39],-0.263
same,glycan array binding signal (z-score),[40],-0.32
same,glycan array binding signal (z-score),[41],-0.218
same,glycan array binding signal (z-score),[42],-0.391
same,glycan array binding signal (z-score),[43],-0.316
